# Laboratory results reported in PMC12040169 (PLOS Biology, 2025).
# This is one part of the list.
# System: T1, C. trachomatis L2/434/Bu expressing GFP (CTL2-GFP)
# T1 construct: L2/434/Bu GFP intracellular growth in HeLa cells
# Design: species or system HeLa; C. trachomatis total inclusion area by high-content imaging, normalised to DMSO
# Conditions: total inclusion area; 28.5 h, 10 µM; inhibitor
# Procedure, shortened: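 High-content images of fixed, Hoechst-stained infected cultures supply inclusion area and count (growth) plus nuclei number (viability), complementing bulk GFP/resorufin fluorescence. MIC determination is unchanged from the primary assay.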
row,SMILES,% of control remaining
1,Cc1cc(O)c(C(=O)Nc2cccc(Cl)c2)c(=O)n1Cc1ccccn1 [CBK287729],76.6224
2,N#Cc1c2c(c(NCCN3CCCCC3)n3c1nc1ccccc13)CCC2 [CBK263140],91.1474
3,Cc1ccccc1N1C(=O)c2ccc(Br)cc2C1=O [CBK022430],22.0314
4,COc1ncc(-c2nccnc2NCc2cccc(Cl)c2)c(OC)n1 [CBK037990],100.594
5,Cc1noc(C)c1NC(=O)c1n[nH]c2ccccc12 [CBK200301],107.82
6,O=C(NCCCO)c1ccc(/C=N/O)nc1 [CBK264560],99.2383
7,Cc1nc2c(c(=O)[nH]1)CN(Cc1c[nH]c3ccccc13)CC2 [CBK282327],90.6886
8,Cn1cc(C(CC(=O)O)C(=O)O)c2ccccc21 (stereo not drawn) [CBK266231],103.788
9,CC(C)NC(=O)CN(CCO)Cc1cc(Br)ccc1F [CBK304944],36.67
10,COCCN(CCOC)C(=O)COc1c(Cl)cc(C(=O)O)cc1Cl [CBK296704],50.0111
11,CNC(=O)c1sc2ccccc2c1C1CCN(Cc2ccc(Oc3ncccn3)cc2)C1 (stereo not drawn) [CBK285881],104.158
12,O=C(Cc1ccc(F)cc1F)N1CCC(Sc2ccc(-c3ccccc3)cc2)CC1 [CBK131950],70.6362
13,CCCCC1CCC(C(=O)Oc2ccccc2OCCO)CC1 (stereo not drawn) [CBK081498],30.228
14,O=C(O)[C@H]1CN(C(=O)c2cccs2)C[C@@H]1c1ccccc1F [CBK283819],96.3983
15,Cn1c2c(c(=O)n(C)c1=O)[C@@H]1C(C[C@](O)(CO)[C@H]1O)C1(CCC1)N2 (stereo partly drawn) [CBK303264],110.061
16,O=C(O)c1cc(NC(=O)c2cccc(F)c2)cc(NC(=O)c2cccc(F)c2)c1 [CBK262800],115.011
17,COc1ccccc1OCC(=O)Nc1cc(C)nc2ccccc12 [CBK122728],81.1148
18,CCn1nc(C)c(CN(C)Cc2nc3ccccc3[nH]2)c1C [CBK282126],93.5833
19,CCOc1ccc(NC(=O)Nc2ccc(CC(=O)O)cc2)cc1 [CBK266945],107.604
20,CN(C)CC(=O)NCc1ccc(-c2nc(-c3ccc(C#N)cc3)cnc2N)cc1 [CBK116506],93.6744
21,COc1ccc(CCN2C(=O)/C(=C\c3c(NCCO)nc4c(C)cccn4c3=O)SC2=S)cc1 [CBK265566],93.9183
22,COCCNc1cc(-c2ccc(F)c(F)c2)ncn1 [CBK090800],119.544
23,Cc1ncc(C(=O)NC2(c3cccc(F)c3)CCCC2)c(C)n1 [CBK283273],83.1458
24,O=S(=O)(Nc1ccc(Cl)c(Cl)c1)c1ccc(Cl)c(Cl)c1 [CBK044838],64.8804
25,Cn1nnnc1SCCNC(=O)Nc1cccc(CN2CCCCC2)c1 [CBK306872],91.5093
26,COCCCn1c(=O)[nH]c2ncc(-c3cnc(OC)nc3)nc21 [CBK064618],69.355

row,SMILES,% of control remaining
1,COCCN1CCC(CNC(=O)Nc2cc(C)ccc2F)C1 (stereo not drawn) [CBK304631],68.5366
2,O=C(O)c1cccc(NCC(=O)c2ccccc2)c1 [CBK287163],110.458
3,CCCc1nn(CC(=O)N(CC)CC)c(=O)c2cc3ccsc3n12 [CBK284192],79.2276
4,O=C(O)c1cccc(-c2ccc(Nc3cccc(NC(=O)c4ccncc4)c3)nc2)c1 [CBK037776],139.28
5,Cn1ccc(C(=O)N2CCCC3(C/C=C/Cc4ccccc4OCC(=O)NC3)C2)cc1=O (stereo not drawn) [CBK292179],108.084
6,O/N=C1\CC2(CCCCC2)c2ccccc21 [CBK013318],55.0535
7,CC(C)n1cc(C(=O)N2CCCC(c3cc4ncccc4[nH]3)C2)cn1 (stereo not drawn) [CBK283419],99.4456
8,CC(=O)Nc1ccc(CN[C@@H]2CCC[C@H]2Cc2cc(C)no2)cc1 [CBK285459],90.0384
9,COc1ccc(-c2csc(Nc3cccc(C(=O)O)c3)n2)cc1 [CBK286924],83.7274
10,COC(=O)N1CC2(CCCCC2NCC2CCCO2)c2ccccc21 (stereo not drawn) [CBK083541T],95.0179
11,O=C(O)c1ccc(Oc2ccc3c(c2)C(=O)N(c2nccs2)C3=O)cc1 [CBK261200],91.5357
12,Cc1ccc(S(=O)(=O)Nc2ccsc2C(=O)Nc2ccc(F)cc2)cc1 [CBK004571],82.4062
13,CC1(C(C)(O)C(F)F)OC(NC2C3CC4CC(C3)CC2C4)=NC1=O (stereo not drawn) [CBK137190],91.794
14,CC1CC(/N=C2/NCCS2)CC(C)(C)C1 (stereo not drawn) [CBK020293],120.078
15,CC(=O)Nc1ccc(Nc2nc(-c3ccc(O)cc3)cn3ccnc23)cc1 [CBK037992],112.87
16,Nc1ccc(C(=O)Nc2ccc(-c3nc4ccc(NC(=O)c5ccc(N)cc5)cc4[nH]3)cc2)cc1 [CBK261147],47.0725
17,CN(C)C(=O)CSc1nnc(-c2cccc3ccccc23)n1-c1ccccc1 [CBK266044],139.423
18,Cn1c(=O)c2ncn(CC(=O)Nc3ccc(N4CCN(Cc5ccccc5)CC4)cc3)c2n(C)c1=O [CBK266875],100.607
19,Cc1c(Cc2ccccc2)c(N2CCN(C/C=C/c3ccccc3)CC2)n2c(nc3ccccc32)c1C#N [CBK263112],95.2546
20,CC(=O)N1CCC(N2C[C@H](O)C[C@H]2c2nc(-c3cccc([N+](=O)[O-])c3)no2)CC1 [CBK288846],119.21
21,Nc1ccc(-c2cc(N)n(-c3ccc(Oc4ccccc4)c(S(=O)(=O)O)c3)n2)cc1 [CBK261563],36.1343
22,CN(Cc1nccs1)C(=O)c1cccc(OCC(=O)N2CCCCC2)c1 [CBK307478],56.5615
23,Nc1cc2c(cc1Cl)C(=O)NC2=O [CBK028783],100.793
24,CCN(CC)CCN(Cc1ccc2c(c1)OCO2)C(=O)Nc1ccc2[nH]ccc2c1 [CBK159037],79.1922
25,COc1ccc([C@H]2CN(Cc3ccccc3)C[C@@H]2NC(=O)CCc2ccco2)cc1 [CBK286477],89.4915
